From paper PMC4917848
Results are given in words; binding and its absence hold for the method and conditions named. Binding seen in cells or lysates may run through a third protein. Some entries that bind do so weakly or less than the wild type. For some assays here: Tags and fused reporters may be left off the sequences shown.

By UniProt entry, the sequences of proteins in these tests, tags left out. Where a name states a change or a piece, a line headed by the entry shows the natural chain unless it says otherwise.
UniProt P48431: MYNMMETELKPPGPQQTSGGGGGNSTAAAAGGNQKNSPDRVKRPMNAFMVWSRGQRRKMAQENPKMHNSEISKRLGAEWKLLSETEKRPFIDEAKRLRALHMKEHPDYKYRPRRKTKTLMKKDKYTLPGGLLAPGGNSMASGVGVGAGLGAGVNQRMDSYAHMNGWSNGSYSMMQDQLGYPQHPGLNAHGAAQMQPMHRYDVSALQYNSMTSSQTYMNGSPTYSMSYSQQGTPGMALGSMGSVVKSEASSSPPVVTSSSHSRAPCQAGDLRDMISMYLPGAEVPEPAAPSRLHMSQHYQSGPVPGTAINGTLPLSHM
UniProt Q06945: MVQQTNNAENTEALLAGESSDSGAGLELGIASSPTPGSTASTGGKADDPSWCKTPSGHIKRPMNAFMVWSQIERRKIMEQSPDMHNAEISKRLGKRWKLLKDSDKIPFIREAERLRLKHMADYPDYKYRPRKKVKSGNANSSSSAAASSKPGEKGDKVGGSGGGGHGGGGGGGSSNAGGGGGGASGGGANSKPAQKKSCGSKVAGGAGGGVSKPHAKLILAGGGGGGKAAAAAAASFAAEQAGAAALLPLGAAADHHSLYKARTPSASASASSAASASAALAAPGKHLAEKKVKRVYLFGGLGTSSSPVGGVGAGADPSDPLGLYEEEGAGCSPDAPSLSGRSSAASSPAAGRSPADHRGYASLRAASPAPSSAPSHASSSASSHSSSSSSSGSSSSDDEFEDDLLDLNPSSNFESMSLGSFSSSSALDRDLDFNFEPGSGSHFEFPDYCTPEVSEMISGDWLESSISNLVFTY
UniProt P01106: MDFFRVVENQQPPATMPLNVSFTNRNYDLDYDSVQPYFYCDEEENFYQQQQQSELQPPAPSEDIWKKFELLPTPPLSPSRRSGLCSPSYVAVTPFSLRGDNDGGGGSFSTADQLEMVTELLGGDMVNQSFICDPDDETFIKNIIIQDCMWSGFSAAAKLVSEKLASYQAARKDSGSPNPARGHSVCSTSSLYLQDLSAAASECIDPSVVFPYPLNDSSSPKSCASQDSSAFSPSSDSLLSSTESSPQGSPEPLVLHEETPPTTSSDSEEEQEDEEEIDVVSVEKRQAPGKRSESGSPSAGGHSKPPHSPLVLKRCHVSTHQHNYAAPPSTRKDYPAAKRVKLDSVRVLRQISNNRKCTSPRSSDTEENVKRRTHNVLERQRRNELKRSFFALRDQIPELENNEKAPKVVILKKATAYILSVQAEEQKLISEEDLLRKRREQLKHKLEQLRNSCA

T1: HA-VRK1 (human) (UniProt Q99986)
T1 sequence: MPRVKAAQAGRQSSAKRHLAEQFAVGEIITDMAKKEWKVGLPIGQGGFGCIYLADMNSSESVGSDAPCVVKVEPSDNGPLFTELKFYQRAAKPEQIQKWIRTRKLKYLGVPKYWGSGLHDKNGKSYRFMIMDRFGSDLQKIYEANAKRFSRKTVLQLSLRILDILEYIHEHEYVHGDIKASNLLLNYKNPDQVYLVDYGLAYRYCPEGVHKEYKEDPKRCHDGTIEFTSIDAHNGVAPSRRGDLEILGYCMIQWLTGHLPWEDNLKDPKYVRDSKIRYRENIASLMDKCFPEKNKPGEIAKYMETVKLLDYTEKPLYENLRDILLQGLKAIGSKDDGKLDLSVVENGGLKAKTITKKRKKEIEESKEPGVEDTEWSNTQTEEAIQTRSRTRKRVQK

T2: GST-VRK1 (pull-down of Sox2) (human) (UniProt Q99986)
T2 sequence: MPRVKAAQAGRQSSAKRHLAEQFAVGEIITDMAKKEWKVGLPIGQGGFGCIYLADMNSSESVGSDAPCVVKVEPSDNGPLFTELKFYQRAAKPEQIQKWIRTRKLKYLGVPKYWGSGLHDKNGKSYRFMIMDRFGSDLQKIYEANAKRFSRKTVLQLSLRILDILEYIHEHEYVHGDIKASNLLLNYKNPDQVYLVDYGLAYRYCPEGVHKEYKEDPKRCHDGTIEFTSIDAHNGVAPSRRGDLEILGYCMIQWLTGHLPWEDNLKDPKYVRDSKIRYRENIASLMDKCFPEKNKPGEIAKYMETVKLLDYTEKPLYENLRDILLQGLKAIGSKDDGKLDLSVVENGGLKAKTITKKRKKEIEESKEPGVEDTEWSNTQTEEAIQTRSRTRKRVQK

T3: GST-VRK1 (co-transfected with Sox4) (human) (UniProt Q99986)
T3 sequence: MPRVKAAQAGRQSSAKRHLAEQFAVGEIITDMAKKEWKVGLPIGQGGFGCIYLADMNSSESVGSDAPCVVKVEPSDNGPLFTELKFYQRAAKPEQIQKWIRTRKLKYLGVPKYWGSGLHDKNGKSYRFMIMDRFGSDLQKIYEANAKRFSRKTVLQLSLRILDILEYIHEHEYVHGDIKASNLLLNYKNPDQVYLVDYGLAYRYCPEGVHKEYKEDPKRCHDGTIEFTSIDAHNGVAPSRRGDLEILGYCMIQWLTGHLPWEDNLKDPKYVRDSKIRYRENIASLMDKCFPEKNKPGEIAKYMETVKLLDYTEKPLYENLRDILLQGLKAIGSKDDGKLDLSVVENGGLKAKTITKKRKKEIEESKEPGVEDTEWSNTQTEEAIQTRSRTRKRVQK

T4: VRK1-myc (human) (UniProt Q99986)
T4 sequence: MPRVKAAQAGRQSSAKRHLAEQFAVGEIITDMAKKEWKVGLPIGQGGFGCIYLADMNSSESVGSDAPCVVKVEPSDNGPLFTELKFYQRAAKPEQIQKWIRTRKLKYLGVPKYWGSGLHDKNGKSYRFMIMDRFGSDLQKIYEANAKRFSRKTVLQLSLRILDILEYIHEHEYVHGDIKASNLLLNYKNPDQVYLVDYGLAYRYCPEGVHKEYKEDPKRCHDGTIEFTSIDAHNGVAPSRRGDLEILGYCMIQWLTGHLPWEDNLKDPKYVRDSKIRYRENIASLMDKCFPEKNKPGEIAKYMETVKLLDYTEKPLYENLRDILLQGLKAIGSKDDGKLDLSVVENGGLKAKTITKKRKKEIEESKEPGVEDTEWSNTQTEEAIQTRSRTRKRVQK

T5: human endogenous VRK1 (human (endogenous in MDA-MB-231, NT2, HEK293T)) (UniProt Q99986)
T5 sequence: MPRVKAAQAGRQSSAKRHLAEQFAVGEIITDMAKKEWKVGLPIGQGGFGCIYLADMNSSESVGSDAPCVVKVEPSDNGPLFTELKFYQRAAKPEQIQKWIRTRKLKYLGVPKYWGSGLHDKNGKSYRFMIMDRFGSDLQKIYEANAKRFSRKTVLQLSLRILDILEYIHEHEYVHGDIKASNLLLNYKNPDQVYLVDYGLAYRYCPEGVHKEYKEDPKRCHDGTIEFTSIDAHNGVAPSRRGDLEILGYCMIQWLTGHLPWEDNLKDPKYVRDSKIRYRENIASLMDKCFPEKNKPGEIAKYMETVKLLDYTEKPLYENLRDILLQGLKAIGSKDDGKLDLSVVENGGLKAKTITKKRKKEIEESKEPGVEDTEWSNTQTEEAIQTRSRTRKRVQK


How the values were obtained:
HA-VRK1 (human) = biological target: T1, HA-VRK1 (human); experiment: co-IP; cells transfected with tagged plasmids (myc-Flag, HA, myc); whole cell extracts 36 h after transfection; lysis buffer 50 mM Tris-HCl pH 7.5, 150 mM NaCl, 1% Nonidet, 1 mM EDTA; beads washed five times
[1] = biological target: T2, GST-VRK1 (pull-down of Sox2) (human); experiment: pull-down; GST-VRK1 pull-down of Sox2 (Supplementary Fig. S2c); conditions not given
[2] = biological target: T3, GST-VRK1 (co-transfected with Sox4) (human); experiment: pull-down; GST-VRK1 co-transfected with tagged Sox4 wt or mutants; pull-down from the cell lysate
VRK1-myc (human) = biological target: T4, VRK1-myc (human); experiment: co-IP; cells transfected with tagged plasmids (myc-Flag, HA, myc); whole cell extracts 36 h after transfection; lysis buffer 50 mM Tris-HCl pH 7.5, 150 mM NaCl, 1% Nonidet, 1 mM EDTA; beads washed five times
[3] = biological target: T5, human endogenous VRK1 (human (endogenous in MDA-MB-231, NT2, HEK293T)); experiment: co-IP; endogenous proteins from cell lysates (MDA-MB-231, NT2, HEK293T); IP with anti-Sox2 mAb (E-4) or anti-VRK1 (1B5), blots with VC1 and Y-17; control IP with a nonspecific antibody; lysis buffer 50 mM Tris-HCl pH 7.5, 150 mM NaCl, 1% Nonidet, 1 mM EDTA
[4] = biological target: human endogenous Sox2 (human (endogenous in MDA-MB-231, NT2, HEK293T)) (UniProt P48431); experiment: as above

binding [2] | binding (VRK1-myc (human)) | also measured | Molecule
– | – | binding (HA-VRK1 (human)): binds | Flag-Sox2 (from UniProt P48431 1-317)
– | – | binding [1]: binds | Sox2 (in the GST-VRK1 pull-down) (from UniProt P48431 1-317)
no binding | no binding | – | Tagged Sox4 wt (from UniProt Q06945 1-474)
no binding | no binding | – | Tagged Sox4(A350P) (from UniProt Q06945 1-474)
no binding | no binding | – | Tagged Sox4(S395X) (from UniProt Q06945 1-474)
– | – | binding [3]: no binding | endogenous c-myc protein (from UniProt P01106 1-454)
– | – | binding [3]: binds | human endogenous Sox2 (from UniProt P48431 1-317)
– | – | binding [4]: binds | human endogenous VRK1 (protein, UniProt Q99986 1-396) MPRVKAAQAGRQSSAKRHLAEQFAVGEIITDMAKKEWKVGLPIGQGGFGCIYLADMNSSESVGSDAPCVVKVEPSDNGPLFTELKFYQRAAKPEQIQKWIRTRKLKYLGVPKYWGSGLHDKNGKSYRFMIMDRFGSDLQKIYEANAKRFSRKTVLQLSLRILDILEYIHEHEYVHGDIKASNLLLNYKNPDQVYLVDYGLAYRYCPEGVHKEYKEDPKRCHDGTIEFTSIDAHNGVAPSRRGDLEILGYCMIQWLTGHLPWEDNLKDPKYVRDSKIRYRENIASLMDKCFPEKNKPGEIAKYMETVKLLDYTEKPLYENLRDILLQGLKAIGSKDDGKLDLSVVENGGLKAKTITKKRKKEIEESKEPGVEDTEWSNTQTEEAIQTRSRTRKRVQK
